From PMC4336329 (PLoS ONE, 2015)
The campaign covered roughly 310,000 compounds. About 2,200 (0.71%) showed an effect of 50% or more. The effect is printed as a negative number. Some of the results follow.

target: human ether-à-go-go-related gene (hERG) potassium channel (human, UniProt Q12809); test: primary screen, population patch clamp on CHO cells stably expressing hERG
Sequence (Q12809 whole entry, looked up): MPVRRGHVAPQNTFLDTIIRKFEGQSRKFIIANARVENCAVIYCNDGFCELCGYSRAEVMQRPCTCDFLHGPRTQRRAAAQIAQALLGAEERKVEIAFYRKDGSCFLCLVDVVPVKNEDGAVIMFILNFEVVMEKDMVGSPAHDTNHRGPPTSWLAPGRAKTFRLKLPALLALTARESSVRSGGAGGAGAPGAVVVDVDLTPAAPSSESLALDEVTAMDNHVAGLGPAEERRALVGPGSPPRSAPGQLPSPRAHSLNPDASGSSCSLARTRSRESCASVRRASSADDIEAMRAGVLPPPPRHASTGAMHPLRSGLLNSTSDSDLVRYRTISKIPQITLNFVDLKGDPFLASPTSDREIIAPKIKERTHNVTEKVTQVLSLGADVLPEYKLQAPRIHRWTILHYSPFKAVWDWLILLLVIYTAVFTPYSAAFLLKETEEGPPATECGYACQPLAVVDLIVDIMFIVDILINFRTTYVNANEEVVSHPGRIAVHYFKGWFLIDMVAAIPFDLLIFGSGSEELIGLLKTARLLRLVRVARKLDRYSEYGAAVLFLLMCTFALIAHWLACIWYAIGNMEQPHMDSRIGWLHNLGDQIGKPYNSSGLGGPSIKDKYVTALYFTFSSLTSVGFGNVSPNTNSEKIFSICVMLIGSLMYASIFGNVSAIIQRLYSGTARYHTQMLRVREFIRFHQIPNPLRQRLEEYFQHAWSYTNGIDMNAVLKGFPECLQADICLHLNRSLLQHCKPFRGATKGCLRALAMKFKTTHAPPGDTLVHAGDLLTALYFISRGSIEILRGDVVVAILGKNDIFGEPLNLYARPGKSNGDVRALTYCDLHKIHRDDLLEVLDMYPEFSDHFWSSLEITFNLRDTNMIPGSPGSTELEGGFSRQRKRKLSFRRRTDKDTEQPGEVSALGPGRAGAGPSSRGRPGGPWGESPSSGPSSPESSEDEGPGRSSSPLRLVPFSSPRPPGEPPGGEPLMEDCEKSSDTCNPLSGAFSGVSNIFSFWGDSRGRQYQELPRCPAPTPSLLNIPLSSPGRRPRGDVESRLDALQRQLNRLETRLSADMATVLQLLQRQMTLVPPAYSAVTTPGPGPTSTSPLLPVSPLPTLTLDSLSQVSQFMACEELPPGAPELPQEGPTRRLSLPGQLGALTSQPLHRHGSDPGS

Row | SMILES | hERG current change (%, negative = inhibition) at 1uM [%]
1 | O=C(c1ccccc1Cl)N(Cc1ccc(Br)cc1)N1C(=O)CCCC1=O | 10.2
2 | O=C(c1ccco1)N1CCN(CC(=O)N(C2CCCCC2)C2CCS(=O)(=O)C2)CC1 (stereo not drawn) | 13.9
3 | O=C(Nc1ccc(C(=O)N2CCN(c3ccccc3F)CC2)cc1)C1=CSCCO1 | 14
4 | Cn1cnc(NCc2ccccc2)c1[N+](=O)[O-] | 12.2
5 | O=C(Cc1cccs1)N/N=C/c1ccco1 | 16
6 | Nc1cc(C(=O)N2CCN(c3ccc([N+](=O)[O-])cc3)CC2)ccc1N1CC2CC(C1)c1cccc(=O)n1C2 (stereo not drawn) | 6.93
7 | Cc1cc2c(cc1C)N(Cc1ccccc1)C1=NCCCN12.Cl | -26.6
8 | Cc1cc(C)nc(SCC(=O)OCC(=O)N(C)c2c(N)n(Cc3ccccc3)c(=O)[nH]c2=O)n1 | 14.9
9 | O=C(/C=C/c1ccc([N+](=O)[O-])cc1)NC1CC2CCC1C2 (stereo not drawn) | -9.35
10 | O=C(N/N=C\c1ccc(Sc2ccccn2)o1)c1cccc(Br)c1 | 13.6
11 | Cc1nn(C(C)C)c(C)c1CN1CCN(Cc2ccsc2)C(CCO)C1 (stereo not drawn) | 11.9
12 | Cc1cccc(OCCC(=O)OCC(=O)N2CCc3ccccc32)c1 | 13.2
13 | Cc1ccc(NC(=O)N2CCC(C(=O)NCCC3=CCCCC3)CC2)cc1 | -0.318
14 | O=C1c2ccccc2NC(c2ccccc2)N1c1ccc(O)cc1 (stereo not drawn) | 5.5
15 | CCC(=O)Nc1ccc(Cl)c(NC(=O)c2ccccc2OC)c1 | 4.96
16 | O=S(=O)(Nc1ccncc1Cl)c1cc(Cl)ccc1Cl | 9.03
17 | CCC(=O)Nc1ccc(NC(=O)CSc2nc3c(c(=O)n(C)c(=O)n3C)n2CC)cc1 | 7.12
18 | C=C1CCN([C@@H](C)C(=O)NCc2cc(OC)c(OC)c(OC)c2)S(=O)(=O)c2ccccc21 | 11.7
19 | Cc1nc2ccc(S(=O)(=O)NCC(=O)O)cc2s1 | 6.23

Row | SMILES | hERG current change (%, negative = inhibition) at 1uM [%]
20 | Cc1cccc(NC(=O)C(c2cccc([N+](=O)[O-])c2)N2CCCCC2)c1 (stereo not drawn) | 14.9
21 | O=C(CCN1C(=O)/C(=C/c2ccccc2F)SC1=S)NCCc1ccc(O)cc1 | 11.7
22 | CC1=C(C(=O)OCC(C)C)C(c2ccccc2Cl)NC(=O)N1C (stereo not drawn) | 9.59
23 | Cc1cccc(N=C2SC(C)CN2C(=O)CN2C(=O)NC3(CCCC3)C2=O)c1 (stereo not drawn) | 0.0383
24 | O=C1Nc2ccc(Cl)cc2/C1=C/C1CC=CCC1 (stereo not drawn) | 7.83
25 | COc1cc(S(=O)(=O)Nc2cccnc2)ccc1F | 2.55
26 | Cc1ccc(C)c(NC(CC(=O)c2ccccc2)C(=O)OCC(=O)c2cccs2)c1 (stereo not drawn) | 8.86
27 | Cc1cc(C(=O)Nc2c(F)cc(F)cc2Br)cs1 | 15.2
28 | O=C(CSc1nnc2c3ccccc3c3ccccc3c2n1)Nc1ccccc1 | 6.56
29 | Nc1ccc(N2CCN(c3cccc(Cl)c3)CC2)cc1 | 1.01
30 | Cc1cccc(C)c1NC(=O)NCc1ccco1 | 13.6
31 | O=C(O)COn1c(-c2ccccc2)nc2ccc(Cl)cc21 | -0.951
32 | COc1ccc(S(=O)(=O)N2CCN(C)CC2)cc1NC(=O)c1ccccc1C | 0.757
33 | CCOC(=O)c1c(NC(=O)c2ccccc2)sc2c1CCc1ccccc1-2 | 9.87
34 | Cn1c(CSCc2ccc(Cl)cc2)nnc1SCC(=O)Nc1nccs1 | 4.23
35 | CC(C)c1ccc(NC2CCCN(C(=O)c3cccc4nccnc34)C2)cc1 (stereo not drawn) | 5.47
36 | O=C(COc1cccc2cccnc12)N/N=C1\SCC(=O)N1CCc1ccccc1 | -0.0657
37 | Cc1ccc(C)c(OCc2cc(C(=O)N3CCN(c4ccccc4)CC3)no2)c1 | 0.205
38 | COC(=O)CCC(=O)NS(=O)(=O)c1ccc(N=NN2CCOCC2)cc1 | 5.65

Row | SMILES | hERG current change (%, negative = inhibition) at 1uM [%]
39 | COc1ccc(S(=O)(=O)NCC(c2ccc(F)cc2)N2CCN(C)CC2)cc1 (stereo not drawn) | -3.98
40 | Brc1ccc(C2=Nc3cccc4cccc(c34)N2)o1 | 11.3
41 | COc1ccc(S(=O)(=O)N2CCCCCC2)cc1C(=O)OCC(=O)NC(N)=O | 8.64
42 | Cc1cc(C(F)(F)F)nc(SCC(=O)NC2CCCCC2)n1 | 5.94
43 | Cc1ccc(F)cc1NC(=O)COC(=O)c1ccc2ncsc2c1 | 10.2
44 | Cc1nn(C(C)C(=O)N/N=C/c2ccc(N(C)C)cc2)c(C)c1[N+](=O)[O-] (stereo not drawn) | 3.11
45 | CCOC(=O)c1sc(NC(=O)Cc2c(F)cccc2Cl)nc1C | 4.19
46 | Cc1ccc(C(=O)N/N=C/C2=Cc3ccccc3OC2C)cc1 (stereo not drawn) | -3.19
47 | Cc1cc(-n2c(C)cc(C(=O)CCl)c2C)no1 | 8.36
48 | Cc1ccc(NC(=O)N2CCCC2C(=O)Nc2c(C)cc(C)cc2C)cc1 (stereo not drawn) | 5.35
49 | O=C(C1CCN(S(=O)(=O)c2ccc(Cl)cc2)CC1)N1CCCCCCC1 | 7.38
50 | CSC1=N/C(=C\c2ccc(C)o2)C(=O)S1 | 1.62
51 | O=C1CC(NC2CCN(C(=O)c3cccc(F)c3)CC2)C(=O)N1 (stereo not drawn) | 15.1
52 | O=C(c1ccc(NC(=O)C2(c3ccccc3)CCOCC2)cc1)N1CCOCC1 | 10.3
53 | Cc1ccc(C(=O)CSc2nnc(-c3cccnc3)n2N)cc1 | -0.97
54 | C=CCn1c(N)c(C(=O)N2CCOCC2)sc1=S | 11.9
55 | COc1ccc(CN2C(=O)c3cccnc3C2=O)cc1S(=O)(=O)N1CCCCC1C (stereo not drawn) | 10.9
56 | COc1ccc(CCn2c(NCCCN3CCOCC3)nc3c2c(=O)[nH]c(=O)n3C)cc1 | 7.24
57 | Cc1cccc(C(=O)NCCN(C)C)c1.Cl | -0.633
